From ChEMBL document CHEMBL4888484, “Replenishing the malaria drug discovery pipeline: Screening and hit evaluation of the MMV Hit Generation Library 1 (HGL1) against asexual blood stage Plasmodium falciparum ,using a nano luciferase reporter read-out” (2022) come the findings set out here.

This assay deals with Plasmodium falciparum. The experiment in a line: Primary screen in NF54 nanoGlo assay, in single point, at 2uM, 72h; a lower Z score goes with more inhibition. The class given is functional, Erythrocyte. The conditions noted are these: timepoint 72 hour.

Where “and” joins values, the source holds several entries; their conditions need not be identical. Identical values can stand only once. Screen size: about 150,000 compounds; about 540 (0.36%) showed an effect of 50% or more. The list shows a part of the results.

With `O=C([C@@H]1COc2ccccc2O1)N1CCCc2cc(S(=O)(=O)N3CCCC3)ccc21`, the % Inhibition – broadly, the drop in the measured response relative to a control, in per cent – is given as -9% and the Z score worked out at 1.07.
With `N#Cc1ccc(N2CCC(O)C3CCCCC32)nn1` (centres undefined), the “% Inhibition” value was -5% and the Z score is 0.61.
Regarding `CC(C)(C)n1cc(CNc2ncccc2OC(F)F)cn1`, the “% Inhibition” value is on record as -10% and the Z score stood at 1.25.
The matching figures for `c1nc(C2CC2)c(CNC[C@H]2CCOC3(CCC3)C2)s1`: 2% and -0.39.
The matching figures for `CCn1nnnc1-c1cccc(NCc2cccc(C#N)c2)c1`: -5% and 1.03.
For `C=CCN(c1ccc2nnc(C(F)(F)F)n2n1)C1CC1`, the “% Inhibition” value is recorded as -4% and the Z score amounted to 0.49.
As to `Cc1noc(CN2CC(O)=C(c3nc4ccccc4s3)C2=N)n1`, the “% Inhibition” value is listed as 0% and the Z score turned out to be 0.04.
For the molecule `CCn1ncnc1[C@H](C)NC(=O)Nc1ccc(Cl)c(C)c1`, the “% Inhibition” value is reported as -7% and the Z score is 1.36.
As for `O=C1c2ccccc2C(=O)N1CC(=O)n1nnc2ccccc21`, the “% Inhibition” value was -4% and the Z score came out at 0.42.
For the molecule `CN(C)c1ccc(C(=O)NCCn2c(-c3ccncc3)nc3ccccc32)cc1`, the “% Inhibition” value is on record as 1% and the Z score is given as -0.17.
The matching figures for `Cc1cc(=O)[nH]c(N2CCC(NC(=O)c3ccc(F)c(Cl)c3)CC2)n1`: -9% and 1.56.
The matching figures for `Cc1sc2ccccc2[n+]1Cc1ccccc1`: -15% and 1.77.
The matching figures for `Cc1ccsc1C(=O)Nc1cccn2cnnc12`: -1% and 0.15.
Turning to `Cc1ccc(-c2nc(-c3ccc4nnn(C)c4c3)no2)c(C)c1`, the “% Inhibition” value is given as -8% and the Z score was 1.34.
On to `Cc1nc2ccccn2c1CC(=O)NCCc1nncn1C`, for which the “% Inhibition” value is listed as -12% and the Z score was determined as 1.62.
The matching figures for `COc1c(F)ccc(CN2CCNC(=O)C23CCCC3)c1F`: 0% and -0.08.
The matching figures for `COCCn1c(-c2ccnn2C)nnc1N1CCN2CCOC[C@@H]2C1`: 3% and -0.49.
The matching figures for `Cc1ccc(NCC2CCN(C(C)C(=O)Nc3cc(C)no3)C2)nc1` (centres undefined): 1% and -0.17.
As to `CCCN(C)C(=O)c1nc(C(F)(F)F)ccc1Br`, the “% Inhibition” value worked out at 9% and the Z score is given as -1.1.
Consider `CCn1c(CN2CCC[C@H]2c2cccs2)nc2cc(S(=O)(=O)N(C)C)ccc21`, for which the “% Inhibition” value is -1% and the Z score came out at 0.16.
The matching figures for `CN(Cc1ccccc1)[C@H]1CCCN(C(=O)CCCc2ccccc2)C1`: -17% and 1.45.
On to `O=C(Cc1ccc(-c2ccccc2)cc1)Nc1ccc2[nH]c(=O)[nH]c2c1`, for which the “% Inhibition” value was -2% and the Z score turned out to be 0.29.
The matching figures for `NC(=O)c1c(NC(=O)c2ccc(S(=O)(=O)N3CCOCC3)cc2)sc2c1CCC2`: -13% and 1.12.
The matching figures for `CNC(=O)Cn1cc(NC2CC(C)(C)CC2C)cn1` (centres undefined): -7% and 0.74.
For `CCN1CCN(C(=O)c2nn(-c3ccccc3)c3c(=O)n(C)cnc23)CC1`, in that order: -13% and 1.21.
For the molecule `CC[C@H](C)[C@H](NC(=O)c1c(C)nn(C2CCS(=O)(=O)C2)c1C)c1nc2ccccc2[nH]1` (some centres undefined), the “% Inhibition” value is given as -8% and the Z score is listed as 1.14.
For the molecule `Cc1ccc(CN(C)C(=O)[C@@H]2CCN(C(=O)OC(C)(C)C)C2)o1`, the “% Inhibition” value is recorded as -4% and the Z score was 0.41.
For `CN(CC1CCC(NC(=O)C2CC3CCC2O3)CC1)C(=O)C1CC2CCC1O2` (centres undefined), in that order: -5% and 0.83.
In the case of `CCCC(NC(=O)CC1CCCCO1)c1nnn[nH]1` (centres undefined), the “% Inhibition” value is listed as -10% and the Z score amounted to 0.98.
The matching figures for `CC(C)COc1cncc(NCCN2C(=O)Cc3ccccc32)n1`: -10% and 1.48.
The matching figures for `COCCn1nc2n(c1=O)CCC1(CC2)CCN(C(=O)c2ccc(F)cc2)CC1`: 0% and -0.01.
Consider `CC(C)C(=O)NCc1cccnc1-c1ccccc1`, for which the “% Inhibition” value is -8% and the Z score was determined as 1.37.
The matching figures for `Fc1ccc(-n2nc(-c3ccco3)nc2[C@H]2CC23CCNCC3)cc1F`: -7% and 1.13.
As to `Oc1nc(N2CCc3ccccc32)nc2c1CCCC2`, the “% Inhibition” value (2 µM) is -1% and -2%.
Regarding `CCc1nn(C)cc1CNC[C@H]1CCCc2ccc(C(=O)O)cc21`, the “% Inhibition” value was -1% and the Z score was determined as 0.09.
In the case of `CC(C)CC1(CNC(=O)CS(=O)(=O)C(C)C)CCCC1`, the “% Inhibition” value is -5% and the Z score is 0.58.
On to `O=C(NCCc1ccccc1)N1CC[C@H]2[C@H](CCC(=O)N2CCCO)C1`, for which the “% Inhibition” value came to 4% and the Z score is given as -0.84.
For the molecule `O=C(c1cccnc1)N1C[C@H]2CC[C@@H](C1)N(C(=O)Cc1ccccc1)C2`, the “% Inhibition” value came to 3% and the Z score is reported as -0.6.
As for `Cc1nc(N2CCC(NCCN3CCCOC3=O)CC2)c2ccsc2n1`, the “% Inhibition” value was -9% and the Z score came to 1.23.
Consider `CCc1ccccc1CN=C(NC)NC`, for which the “% Inhibition” value is -17% and the Z score is 1.69.
For `COc1ccc(S(=O)(=O)NCc2cccnc2)cc1N(C)S(=O)(=O)c1ccc(Cl)cc1`, in that order: -5% and 0.7.
Turning to `Cc1ncsc1NC(=O)CC(F)(F)F`, the “% Inhibition” value was -1% and the Z score amounted to 0.18.
For `CC1=CCN(c2cc(Cl)ccc2C#N)CC1`, in that order: 2% and -0.36.
Take `Cc1cnc(=O)n(C[C@H]2CCCC2(F)F)c1`: the “% Inhibition” value is recorded as -16% and the Z score is 1.88.
Regarding `O=C(NCCCN1CCOCC1)c1ccc2c(c1)nc1n2CCN(C2CCCCC2)C1=O`, the “% Inhibition” value was -19% and the Z score stood at 2.44.
Take `CCc1ccc(-c2cn(Cc3ccc4[nH]c(=O)[nH]c4c3)nn2)nc1`: the “% Inhibition” value is -14% and the Z score came to 2.58.
The matching figures for `Cc1nc(N2CCCC2)c2c(C(=O)Nc3ccccc3F)c(C)oc2n1`: -9% and 1.4.
For `Nc1nc2n(c1C(=O)c1ccc3c(c1)CCCC3)CCC2`, in that order: 30% and -3.38.
In the case of `COc1cc([C@H](C(=O)Nc2ccc3c(c2)OCO3)N(Cc2cccnc2)C(=O)Cn2nnc3ccccc32)cc(OC)c1OC`, the “% Inhibition” value came out at 28% and the Z score is given as -3.12.
Consider `CC(C)(C)C(NS(C)(=O)=O)C(=O)NC1C2CCCOC2C1(C)C` (centres undefined), for which the “% Inhibition” value is given as -9% and the Z score is reported as 1.75.
Regarding `CC1(CS(=O)(=O)Cc2nnc(C3CC3)s2)CCCCC1`, the “% Inhibition” value is reported as 1% and the Z score is listed as -0.13.
For `O=C(c1cccnc1-c1ccncc1F)N1CCCC1`, the “% Inhibition” value is given as -4% and the Z score turned out to be 0.53.
For `O=C(c1cccc(Cl)c1)N1CCc2ncncc2C1`, in that order: -14% and 1.92.
For `Cc1nn(-c2ccccc2)c(Oc2ccccc2)c1CN(Cc1ccco1)C(=O)c1ccc(Cl)cc1`, in that order: -3% and 0.25.
For `c1cncc(-c2nc(-c3ccnc(N4CCCC4)c3)no2)c1`, in that order: 1% and -0.11.
